Assay results: the supplement of paper PMC9334596
Values joined by “and” are separate entries in the source; they are usually repeats but may differ in a detail not shown here. Equal entries are not always repeated. Over roughly 5,300 compounds, “PER2::LUC luminescence relative to vehicle control” has its median near 0.96; the highest 2% begin near 1.3. Some of the results follow.

Test system: mPer2Luc MEF
Assay: PER2::LUC luminescence relative to vehicle control (fold of vehicle); higher = higher PER2::LUC reporter signal
Conditions: 10 µM
In short: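 Compounds from commercial libraries were added at 10 μM to 384-well plates seeded 48 h earlier with ~3000 mPer2Luc mouse embryonic fibroblasts per well. The cells were kept in DMEM with 10% FBS at 37 °C and 5% CO2. Luminescence was read with ONE-Glo 24 h and 30 h after treatment, then an alamarBlue viability assay was run. Values are PER2::LUC luminescence relative to vehicle control, as fold change.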

| SMILES | PER2::LUC luminescence (time after treatment 24 h) | PER2::LUC luminescence (time after treatment 30 h) |
| --- | --- | --- |
| Oc1cc(O)c2c(c1)O[C@H](c1ccc(O)c(O)c1)[C@@H](O)C2 | 1.12 | 0.775 |
| O=C(NN=Cc1ccc(O)c(O)c1)c1cc2ccccc2cc1O | 1.22 | 1.3 |
| C[N+]1(C)CCC(OC(=O)C(c2ccccc2)c2ccccc2)CC1 | 1.15 and 0.92 | 1.24 and 0.978 |
| NC(=O)c1ccc(N(C(N)=O)c2c(F)cccc2F)nc1-c1ccc(F)cc1F | 0.823 | 0.925 |
| CC1(C)OC(=O)C(OCC2CC2)=C1c1ccc(S(C)(=O)=O)cc1 | 0.969 | 0.862 |
| CC(N/C(=N\C#N)Nc1ccncc1)C(C)(C)C (stereo not given) | 1.03 and 1 | 1.09 and 0.951 |
| CCCCC(O)c1ccccc1 (stereo not given) | 0.988 | 1.01 |
| CCCc1cc(C)[nH]c(=O)c1CNC(=O)c1cc(-c2ccc(N3CCN(C(C)C)CC3)nc2)cc2c1cnn2C(C)C | 0.482 | 0.579 |
| O=c1cc(-c2ccccc2)oc2c(O)c(O)ccc12 | 0.582 | 0.632 |
| CCCCOCCOCCOCc1cc2c(cc1CCC)OCO2 | 1 | 0.843 |
| CCN(CC)CCOC(=O)C1(C2CCCCC2)CCCCC1 | 0.758 | 0.811 |
| O=C1O[C@H]([C@@H](O)CO)C(O)=C1OP(=O)(O)O | 0.979 | 0.992 |
| O=C1c2c(O)cccc2Cc2cccc(O)c21 | 1.01 | 1.07 |
| CN[C@@H](C)C(=O)N[C@H](C(=O)N1CCC[C@H]1c1nc(C(=O)c2ccc(F)cc2)cs1)C1CCCCC1 | 0.878 | 0.789 |
| COc1cc([C@@H]2CC(=O)c3c(O)cc(O)cc3O2)ccc1O | 0.985 | 0.942 |
| COc1c(C)c(C(=O)c2ccc(N)c(C(=O)O)c2)n2ccccc12 | 1.05 | 1.09 |
| O=S(=O)(O)c1cc(N=C=S)ccc1/C=C/c1ccc(N=C=S)cc1S(=O)(=O)O | 0.832 | 0.684 |
| CO[C@H]1C[C@H](O[C@H]2[C@H](C)O[C@@H](O[C@@H]3/C(C)=C/C[C@@H]4C[C@@H](C[C@]5(C=C[C@H](C)[C@@H](C6CCCCC6)O5)O4)OC(=O)[C@@H]4C=C(C)[C@@H](O)[C@H]5OC/C(=C\C=C\[C@@H]3C)[C@]54O)C[C@@H]2OC)O[C@@H](C)[C@@H]1O | 0.999 | 0.904 |
| C#CC(N)CCC(=O)O (stereo not given) | 0.982 | 1.04 |
| COc1cc(C(=O)OCCCN2CCCN(CCCOC(=O)c3cc(OC)c(OC)c(OC)c3)CC2)cc(OC)c1OC | 0.605 and 0.307 | 0.587 and 0.498 |
| O=C1C[C@@H](c2ccccc2)Oc2cc(O)cc(O)c21 | 1.07 | 1.08 |
| COc1ccc2c(c1)CCC1C2CCC2(C)C(NCCCCCCN3C(=O)C=CC3=O)CCC12 (stereo not given) | 1.06 | 1.01 |

| SMILES | PER2::LUC luminescence (time after treatment 24 h) | PER2::LUC luminescence (time after treatment 30 h) |
| --- | --- | --- |
| CC[N+](C)(CC)CCOC(=O)C(O)(c1ccccc1)C1CCCCC1 (stereo not given) | 0.931 | 0.87 |
| N=C(NC(=O)c1nc(Cl)c(N)nc1N)Nc1ccccc1 | 1.32 | 1.39 |
| COc1cc2ncnc(Sc3nnc(C)s3)c2cc1OC | 1.12 | 0.661 |
| OCCN1CCN(CC/C=C2/c3ccccc3Sc3ccc(C(F)(F)F)cc32)CC1 | 0.753 and 0.554 | 0.668 and 0.59 |
| O=C1NC(=O)C(c2cnc3ccccn23)=C1c1cn2c3c(cc(F)cc13)CN(C(=O)N1CCCCC1)CC2 | 0.731 | 0.355 |
| N[C@@]1(C(=O)O)C[C@@H](C(=O)O)CC1C(=O)O (stereo not given in full) | 0.971 | 0.877 |
| OC(Cn1cncn1)(Cn1cncn1)c1ccc(F)cc1F | 0.841 | 0.971 |
| CCCOc1cc(N)ccc1C(=O)OCCN(CC)CC | 1.09 | 0.915 |
| Cc1ccc(-c2csc3ncnc(SCCC(=O)O)c23)cc1 | 1.1 | 1.19 |
| NCCc1c[nH]cn1 | 0.832 and 0.572 | 0.983 and 0.838 |
| CC[N+](C)(C)c1cccc(O)c1 | 0.917 | 0.884 |
| O.O.O=C([O-])CN(CCN(CC(=O)[O-])CC(=O)O)CC(=O)O.[Na+].[Na+] | 1.08 | 0.991 |
| C[C@@H](NCCCc1cccc(C(F)(F)F)c1)c1cccc2ccccc12 | 0.849 and 0.905 and 0.872 | 0.943 and 0.875 and 0.906 |
| CC(=O)Nc1cccc(-n2c(=O)n(C3CC3)c(=O)c3c(Nc4ccc(I)cc4F)n(C)c(=O)c(C)c32)c1 | 0.142 | 0.118 |
| CC(=O)[C@@]1(O)CC[C@H]2[C@@H]3C=C(Cl)C4=CC(=O)[C@@H]5C[C@@H]5[C@]4(C)[C@H]3CC[C@@]21C | 0.443 | 0.765 |
| CO[C@@H]1[C@@H](O[C@@H]2O[C@H](C)[C@@H](O[C@H]3C[C@@](C)(O)[C@@H](OC(=O)CC(C)C)[C@H](C)O3)[C@H](N(C)C)[C@H]2O)[C@@H](CC=O)C[C@@H](C)[C@@H](O)/C=C/C=C/C[C@@H](C)OC(=O)C[C@H]1O | 0.929 | 1.07 |
| N=C1CCCN1Cc1[nH]c(=O)[nH]c(=O)c1Cl | 1.01 | 0.974 |
| Nc1[nH]cnc2ncnc1-2 | 0.919 and 1.16 and 1.1 | 0.878 and 1.03 and 1.06 |
| C=CC(N)CCC(=O)O (stereo not given) | 1.08 and 1.03 | 0.992 and 1.01 |
| CCCCCCCCCCCCCCCC(=O)OC/C=C(C)/C=C/C=C(C)/C=C/C1=C(C)CCCC1(C)C | 0.929 and 0.69 | 0.976 and 0.869 |
| COc1ccc2c(C(=S)N(C)CC(=O)O)cccc2c1C(F)(F)F | 1.04 | 1 |
| NS(=O)(=O)c1cc(C2(O)NC(=O)c3ccccc32)ccc1Cl (stereo not given) | 0.992 and 1 | 1.09 and 1 |

| SMILES | PER2::LUC luminescence (time after treatment 24 h) | PER2::LUC luminescence (time after treatment 30 h) |
| --- | --- | --- |
| CCN[C@H]1CN(CCCOC)S(=O)(=O)c2sc(S(N)(=O)=O)cc21 | 0.968 | 1.09 |
| CN(C)CCC(c1ccc(Cl)cc1)c1ccccn1 (racemic) | 0.96 | 0.819 |
| CN(C)c1ccc2c(c1)OC(N)=C(C#N)C2c1cccc(C(F)(F)F)c1 (stereo not given) | 1.04 | 1 |
| CC(=O)OCC(=O)[C@@]1(O)CC[C@H]2[C@@H]3CCC4=CC(=O)CC[C@]4(C)[C@H]3[C@@H](O)C[C@@]21C | 0.627 | 0.995 |
| Cc1ncc(C[n+]2csc(CCO)c2C)c(N)n1 | 1.1 and 1.02 | 0.993 and 1.01 |
| CC(C)c1c(C(=O)Nc2ccccc2)c(-c2ccccc2)c(-c2ccc(F)cc2)n1CC[C@@H](O)C[C@@H](O)CC(=O)O | 0.511 | 0.795 |
| CCCCN(CCCC)CCCOC(=O)c1ccc(N)cc1 | 0.966 | 0.832 |
| COC(=O)Nc1nc2cc(C(=O)c3cccs3)ccc2[nH]1 | 0.756 | 0.841 |
| Cc1ccc(C(=O)c2ccc(CC(=O)O)n2C)cc1 | 1.09 and 1.07 | 1.02 and 1.08 |
| O=C(O)CN1C(=O)c2cccc3cccc(c23)C1=O | 1.04 | 1.26 |
| FC(F)(F)C(Cl)Br (stereo not given) | 1.08 and 1.09 | 0.984 and 0.853 |
| CC(=O)OCC(=O)[C@@]1(O)CC[C@H]2[C@@H]3CCC4=CC(=O)C=C[C@]4(C)[C@@]3(Cl)[C@@H](Cl)C[C@@]21C | 0.791 | 1.33 |
| O=C(C(c1ccccc1)c1ccccc1)N1CCN(CC(O)COc2cccc3ncccc23)CC1 (stereo not given) | 1.04 | 0.904 |
| CC(O)CN(CCN(CC(C)O)CC(C)O)CC(C)O (stereo not given) | 0.907 | 0.977 |
| CC(=Cc1ccc(C(=O)O)cc1)c1ccc2c(c1)C(C)(C)CCC2(C)C | 1.66 | 1.52 |
| O=C(O)CCCCCCCC(=O)O | 1.07 | 0.991 |
| CC(=O)O[C@@H]1C[C@H]2C(C)(C)C(=O)CC[C@]2(C)[C@H]2CC[C@@]3(C)[C@H](c4ccoc4)OC(=O)[C@H]4O[C@]43[C@@]21C | 0.892 | 0.996 |
| CC(=O)OCC(=O)[C@@]1(O)CC[C@H]2[C@@H]3CCC4=CC(=O)CC[C@]4(C)[C@@]3(F)[C@@H](O)C[C@@]21C | 0.699 | 1.2 |
| CC12CCC3C(CC3(C)C)C(C)(CCC1=O)O2 (stereo not given) | 0.975 | 0.921 |
| NC1(C(=O)O)CCCCC1 | 1.16 | 1.01 |
| C=C1CC[C@H](O)C/C1=C/C=C1\CCC[C@]2(C)[C@@H]([C@H](C)CCCC(C)C)CC[C@@H]12 | 0.85 | 0.826 |
| Cc1nccnc1N1CCCCC1 | 0.992 | 0.888 |

| SMILES | PER2::LUC luminescence (time after treatment 24 h) | PER2::LUC luminescence (time after treatment 30 h) |
| --- | --- | --- |
| CC(C)(O)[C@H]1CC[C@@](C)([C@H]2[C@@H](O)C[C@@]3(C)[C@@H]4C[C@H](O[C@@H]5O[C@H](CO)[C@@H](O)[C@H](O)[C@H]5O)[C@H]5C(C)(C)[C@@H](O[C@@H]6OC[C@@H](O)[C@H](O)[C@H]6O)CC[C@@]56C[C@@]46CC[C@]23C)O1 | 0.992 | 0.908 |
| NNCCc1ccccc1 | 1.14 and 0.964 | 1.25 and 1.18 |
| CCCc1cc(C(N)=S)ccn1 | 1.13 | 1.15 |
| FC(F)(F)c1ccc(CNc2ccc(Cc3c[nH]c4ncccc34)cn2)cc1 | 0.637 | 0.617 |
| CC(C)(C)NCC(O)COc1cccc2[nH]c(=O)[nH]c12 (racemic) | 0.854 | 0.872 |
| COc1cccc2c1c(O)c(C(=O)N(C)c1ccc(C(F)(F)F)cc1)c(=O)n2C | 1.06 | 1.01 |
| CC(=O)S[C@@H]1CC2=CC(=O)CC[C@]2(C)[C@H]2CC[C@@]3(C)[C@@H](CC[C@@]34CCC(=O)O4)[C@H]12 | 0.924 and 0.815 | 0.856 and 0.951 |
| C#Cc1cccc(Nc2ncnc3cc(OC)c(OCCCCCCC(=O)NO)cc23)c1 | 0.646 | 0.861 |
| O=C(O)[C@]1(Cc2cccc(Nc3nccs3)n2)CC[C@@H](Oc2cccc(Cl)c2F)CC1 | 1.08 | 0.989 |
| CC(Cc1cccc(C(F)(F)F)c1)NCCOC(=O)c1ccccc1 (stereo not given) | 0.875 and 0.768 | 0.831 and 0.796 |
| O=c1[nH]nc2c3c(cccc13)N=C(CN1Cc3ccccc3C1)N2 | 0.939 | 0.807 |
| COc1cc2c(NC3CCN(C(C)C)CC3)nc(C3CCCCC3)nc2cc1OCCCN1CCCC1 | 0.316 | 0.299 |
| COc1cc2c(Nc3ccc(NC(=O)c4ccccc4)cc3)ncnc2cc1OCCCN1CCOCC1 | 0.801 | 0.763 |
| COc1ccc(CNc2nc(NCc3ccc(OC)cc3)c3ncn(C(C)C)c3n2)cc1 | 0.991 | 1.22 |
| CC(=O)Nc1ccc(C(=O)Nc2ccccc2N)cc1 | 0.744 | 0.677 |
| NCC(O)C1CCCCCCC1 (stereo not given) | 1.07 | 0.964 |
| CN1CCC(=C2c3ccccc3C=Cc3ccccc32)CC1 | 0.373 | 0.75 |
| COc1ccc2c(=O)c(OC)c(-c3ccccc3)oc2c1 | 0.767 | 0.809 |
| COC(=O)[C@@H](N)CSC/C=C(\C)CC/C=C(\C)CCC=C(C)C | 1.05 | 0.998 |
